Test results: patent publication EP4692351A1, “ANTI-CD25 ANTIBODY AND ANTI-CD25 ANTIBODY-DRUG CONJUGATE” (priority 2023, dated 2024)

B1: cMAb1_hIgG1LALA-ADC (conjugate)
heavy: EVQLVESGGGLVQPGRSLKLSCAASGFTFNNYYMVWVRQAPTKGLEWVAYISTGGGTTYYRESVKGRFTISRDNAKSTLYLQMDSLRSEDTATYYCTTSVYFSDGSSHYDGEWFAYWGQGTLVTVSSASTKGPSVFPLAPSSKSTSGGTAALGCLVKDYFPEPVTVSWNSGALTSGVHTFPAVLQSSGLYSLSSVVTVPSSSLGTQTYICNVNHKPSNTKVDKRV[letters of human IgG1 Fc with changes left out]
light: DTVLTQSPALAVSPGERVTISCKASESVSTRMHWYQQKPGQQPKLLIYKASNLASGVPARFSGSGSGTDFTLTIDPVEADDTATYFCQQSWNGWAFGGGTKLELKRTVAAPSVFIFPPSDEQLKSGTASVVCLLNNFYPREAKVQWKVDNALQSGNSQESVTEQDSKDSTYSLSSTLTLSKADYEKHKVYACEVTHQGLSSPVTKSFNRGEC
B2: cMAb2_hIgG1LALA-ADC (conjugate)
heavy: QVKLLQSGAALEKPGASVKMSCKASGYTFTDYWVIWVKQSHGKSLEWIGEIYPNSGATNFNAKFKGKATLTVDKSTSTAYMELSRLTSEDSAIYYCTTYDFDYWGQGVMVTVSSASTKGPSVFPLAPSSKSTSGGTAALGCLVKDYFPEPVTVSWNSGALTSGVHTFPAVLQSSGLYSLSSVVTVPSSSLGTQTYICNVNHKPSNTKVDKRV[letters of human IgG1 Fc with changes left out]
light: DVVLTQTPPTLSATIGQSVSISCRSSQSLSHTNGNTYLYWLLQRPGQPPQLLIYFVSRLESGVPNRFSGSGSGTDFTLKISGVEAEDLGLYYCVQSTHVPNTFGAGTKLELKRTVAAPSVFIFPPSDEQLKSGTASVVCLLNNFYPREAKVQWKVDNALQSGNSQESVTEQDSKDSTYSLSSTLTLSKADYEKHKVYACEVTHQGLSSPVTKSFNRGEC
B3: hMAb1B-ADC (conjugate)
heavy: EVQLVESGGGLVQPGGSLRLSCAASGFTFNNYYMVWVRQAPGKGLEWVAYISTGGGTTYYADSVKGRFTISRDNSKSTLYLQMNSLRAEDTAVYYCTTSVYFSDGSSHYDGEWFAYWGQGTLVTVSS[letters of human IgG1 constant region left out]
light: EIVLTQSPGTLSLSPGERATLSCKASESVSTRMHWYQQKPGQAPRLLIYKASNLASGVPARFSGSGSGTDFTLTISRLEPEDFAVYFCQQSWNGWAFGQGTKVEIKRTVAAPSVFIFPPSDEQLKSGTASVVCLLNNFYPREAKVQWKVDNALQSGNSQESVTEQDSKDSTYSLSSTLTLSKADYEKHKVYACEVTHQGLSSPVTKSFNRGEC

Key:
[1] = tested on: CD25-positive human tumor cell line Karpas-299; assay: Cell proliferation suppression assay, CD25-positive Karpas-299; type: cell-based; conditions: antibody 0.015 to 15 µg/mL, ADC 0.0015 to 1.5 µg/mL; 6 days; CellTiter-Glo
Description: (§1) A CD25-positive human tumor cell line Karpas-299 was subcultured in RPMI1640 (Thermo Fisher Scientific Inc.) medium containing 2 mM glutamine (Life Technologies Corp.) and 20% FBS under conditions of 37°C and 5% CO2. A CD25-negative human tumor cell line Daudi was subcultured in RPMI1640 medium containing 10% FBS under conditions of 37°C and 5% CO2.
The cultured Karpas-299 was inoculated at 1 × 10^3 cells/50 µL/well in RPMI1640 medium containing 2 mM glutamine and 20% FBS to 96 well clear U bottom microplate (Corning Inc.). cMAb1_hIgG1LALA was added at 0.015 µg/mL to 15 µg/mL, and control hIgG1LALA-ADC and cMAb1_hIgG1LALA-ADC were added at 0.0015 µg/mL to 1.5 µg/mL. The cells were cultured for 6 days under conditions of 37°C and 5% CO2. The incubated plate was left standing at room temperature for 30 minutes. […] 100 µL of the solution of each well was added to each well of 96 well white flat bottom microplate (Corning Inc.), and luminescence intensity (relative light unit (RLU)) was measured using a plate reader (Ensight: PerkinElmer, Inc.) and used as an index for the number of cells. […]
(§2) The test was carried out in accordance with 9)-1-2. […] 100 µL/well of the reaction solution was transferred to 96-well White Flat Bottom plate, and luminescence intensity (relative light unit (RLU)) was measured using a plate reader (Ensight: PerkinElmer, Inc.) and used as an index for the number of cells.

[2] = tested on: MDA-MB-231 cancer cell-bearing hematopoietic stem cell-transplanted NOG mice; assay: In vivo immunoenhancing effect: flow cytometry of tumor immunocytes in MDA-MB-231-bearing huNOG mice; parameters: species or system mouse
Description: 5 × 10^6 human breast adenocarcinoma-derived MDA-MB-231 cells (American Type Culture Collection) subcultured in Leibovitz's L-15 medium containing 10% FBS were suspended in Matrigel and subcutaneously transplanted to each female immune-humanized NOG mouse (huNOG mouse) engrafted with human CD34 cells. The mice were grouped on the basis of their tumor volumes. 7 days after transplantation, 1 mg/kg control hIgG1LALA-ADC or 0.1 mg/kg, 0.3 mg/kg, or 1 mg/kg cMAb1_hIgG1LALA-ADC was intravenously administered to each mouse (n = 5). 28 days after ADC administration, tumor was harvested. The harvested tumor mass was treated with gentleMACS (Miltenyi Biotec) to recover cells. The cells were washed with PBS and resuspended therein. Then, the cell suspension was used as a sample for flow cytometry. The amount of PBS in resuspending the cells was the following amount depending on a tumor weight for addition: 0.6 mL for a tumor weight up to 50 mg; 0.9 mL for a tumor weight of 50 to 100 mg; 1.2 mL for a tumor weight of 100 to 150 mg; 1.8 mL for a tumor weight of 150 to 200 mg; and 2.4 mL for a tumor weight of 200 to 300 mg.
Zombie NIR dye solution was prepared by diluting Zombie NIR dye solution attached to Zombie NIR Fixable Viability Kit (BioLegend, Inc.) 1000-fold with PBS. Fc Block solution was prepared by adding and mixing Mouse BD Fc Block (BD Biosciences) solution, Human BD Fc Block solution, and autoMACS Rinsing Solution (Miltenyi Biotec) containing 0.5% BSA (hereinafter, referred to as "MACS buffer") at a ratio of 1:1:48. Foxp3 Fixation/Permeabilization buffer was prepared by mixing 3.5 mL of Concentrate and 10.5 mL of Diluent of Foxp3 Fixation/Permeabilization Concentrate and Diluent (eBioscience, Inc.). Perm wash buffer was prepared by diluting Intracellular Staining Perm Wash Buffer (BioLegend, Inc.) 10-fold with H2O. A cell surface marker antibody cocktail solution was used by adding 2 µL of FITC anti-human CD25 Antibody (BioLegend, Inc.), 1 µL of APC anti-human CD8 Antibody (BioLegend, Inc.), 3 µL of Brilliant Violet 421 anti-human CD4 Antibody (BioLegend, Inc.), 2.5 µL of PE/Cyanine7 anti-human CD45RA Antibody (BioLegend, Inc.), 2 µL of Alexa Fluor 700 anti-mouse CD45 Antibody, 2 µL of Brilliant Violet 605 anti-human CD45 Antibody (BD Biosciences), and Brilliant Violet 650 anti-human CD3 Antibody, and adjusting the whole amount to 50 µL with MACS buffer. An intracellular marker antibody cocktail solution was used by adding 3 µL of PE Mouse anti-Human FoxP3 (BD Biosciences), 3 µL of PerCP/Cyanine5.5 anti-human/mouse Granzyme B Recombinant Antibody (BioLegend, Inc.), 1 µL of Mouse BD Fc Block (BD Biosciences), and 1 µL of Human BD Fc Block, and adjusting the whole amount to 100 µL with Perm wash buffer.
0.1 mL of Zombie NIR dye diluting solution was added to 0.2 mL of the sample for flow cytometry prepared in 9)-2-1, and the mixture was incubated at 4°C for 30 minutes. 0.1 mL of MACS buffer was added thereto, and the mixture was centrifuged, followed by the removal of a supernatant by suction. 0.1 mL of Fc Block solution was added to the remaining cells, which were then incubated at 4°C for 5 minutes. 0.1 mL of the cell surface marker antibody cocktail solution prepared in 9)-2-2 was added to the cells, which were then incubated at 4°C for 30 minutes. Subsequently, 0.1 mL of MACS buffer was added thereto, and the mixture was centrifuged, followed by the removal of a supernatant by suction. 0.2 mL of MACS buffer was added to the remaining cells, and the mixture was further centrifuged to remove a supernatant. This operation was further carried out twice for the washing of the cells. 0.2 mL of Foxp3 Fixation/Permeabilization buffer was added to the cells, which were then incubated at 4°C for 1 hour. 0.2 mL of the intracellular marker antibody cocktail solution was added to the washed cells, which were then incubated at 4°C for 1 hour and then washed twice with Perm wash buffer. […]

[3] = tested on: CD25-negative human tumor cell line Daudi; assay: Cell proliferation suppression assay, CD25-negative Daudi; type: cell-based; conditions: CD25-negative cells; 6 days; CellTiter-Glo
Description: as §1
The cultured Karpas-299 was inoculated at 1 × 10^3 cells/50 µL/well in RPMI1640 medium containing 2 mM glutamine and 20% FBS to 96 well clear U bottom microplate (Corning Inc.). cMAb1_hIgG1LALA was added at 0.015 µg/mL to 15 µg/mL, and control hIgG1LALA-ADC and cMAb1_hIgG1LALA-ADC were added at 0.0015 µg/mL to 1.5 µg/mL. The cells were cultured for 6 days under conditions of 37°C and 5% CO2. The incubated plate was left standing at room temperature for 30 minutes. Reagent solution of CellTiter-Glo(TM) Luminescent Cell Viability Assay (Promega Corp.) was added at 100µL/well, and the plate was mixed at room temperature for 10 minutes under light shielding using a plate mixer (Taitec Corp.). 100 µL of the solution of each well was added to each well of 96 well white flat bottom microplate (Corning Inc.), and luminescence intensity (relative light unit (RLU)) was measured using a plate reader (Ensight: PerkinElmer, Inc.) and used as an index for the number of cells.
Cell proliferation suppressive activity against the CD25 expression-negative human tumor cell line DauDi was measured in the same manner as above using RPMI1640 medium (Thermo Fisher Scientific Inc.) containing 10% FBS (GE Healthcare Bio-Sciences Corp.). Daudi was inoculated at 1 × 10^4 cells/50 µL/well. […]
as §2

[4] = tested on: CD25-positive mouse T cell line CTLL-2; assay: Cell proliferation suppression assay, CTLL-2; type: cell-based; conditions: 0.015 µg/mL to 15 µg/mL; 4 days; CellTiter-Glo
Description: A CD25-positive mouse tumor cell line CTLL-2 was subcultured in RPMI1640 (Thermo Fisher Scientific Inc.) medium containing 1 mM Sodium Pyruvate (Thermo Fisher Scientific Inc.), 1 × MEM Non-Essential Amino Acids Solution (Thermo Fisher Scientific Inc.), and 10% T-STIM with ConA under conditions of 37°C and 5% CO2.
The CD25-positive mouse T cell line CTLL-2 was inoculated at 5 × 10^2 cells/50 µL/well in RPMI1640 (Thermo Fisher Scientific Inc.) medium containing 1 mM Sodium Pyruvate (Thermo Fisher Scientific Inc.), 1 × MEM Non-Essential Amino Acids Solution (Thermo Fisher Scientific Inc.), and 10% T-STIM with ConA to 96 well clear U bottom microplate (Corning Inc.). Further, cMAb2_hIgG1LALA, control hIgG1LALA-ADC, and cMAb2_hIgG1LALA-ADC were added at 0.015 µg/mL to 15 µg/mL. The cells were cultured for 4 days under conditions of 37°C and 5% CO2. The incubated plate was left standing at room temperature for 30 minutes. […] 100 µL of the solution of each well was added to each well of 96 well white flat bottom microplate (Corning Inc.), and luminescence intensity (relative light unit (RLU)) was measured using a plate reader (EnSight: PerkinElmer, Inc.) and used as an index for the number of cells.

[5] = tested on: CD25-positive human tumor cell line EoL-1; assay: Cell proliferation suppression assay, CD25-positive EoL-1; type: cell-based; conditions: 1 × 10^4 cells/well; 6 days; CellTiter-Glo
Description: as §1, with “CO2. A CD25-positive human tumor cell line EoL-1 was subcultured in RPMI1640 (Thermo Fisher Scientific Inc.) medium containing 10% FBS under conditions of 37°C and 5% CO2. A CD25-negative human” for “CO2. A CD25-negative human”
The test was carried out in accordance with 9)-1-2. However, the incubation period was set to 6 days. EoL-1 was inoculated at 1 × 10^4 cells/50 µL/well in RPMI1640 medium containing 10% FBS to 96 well clear U bottom microplate (Corning Inc.). The plate was incubated for 6 days under conditions of 37°C and 5% CO2. The plate thus incubated was brought back to room temperature. 100 µL of Celltiter-Glo Reagent of CellTiter-Glo luminescent Cell Viability Assay (Promega Corp.) kit was added to each well, and the plate was stirred for 10 minutes using a plate shaker. 100 µL/well of the reaction solution was transferred to 96-well White Flat Bottom plate, and luminescence intensity (relative light unit (RLU)) was measured using a plate reader (Ensight: PerkinElmer, Inc.) and used as an index for the number of cells.

[6] = 0.1, 0.3 or 1 mg/kg i.v. 7 days after transplantation, tumor 28 days after administration, vs 1 mg/kg control hIgG1LALA-ADC, n = 5
[7] = 3 mg/kg i.v. 7 days after transplantation, tumor 21 days after administration, vs human IgG1LALA-ADC, n = 4 or 5

Row | Molecule | cell proliferation suppressive activity against Karpas-299 [1] | ratio of the number of human CD8-positive T cells to the number of human CD45 cells (% of hCD45) [2, 6] | ratio of the number of human GZMB-positive and CD8-positive T cells to the number of human CD45 cells (% of hCD45) [2, 6] | ratio of the number of human Treg cells to the number of human CD45 cells (% of hCD45) [2, 6] | cell proliferation suppressive activity against Daudi [3] | cell proliferation suppressive activity against CTLL-2 [4] | ratio of the number of human CD8-positive T cells to the number of human CD45 cells [2, 7] | ratio of the number of human GZMB-positive and CD8-positive T cells to the number of human CD45 cells [2, 7] | ratio of the number of human Treg cells to the number of human CD45 cells [2, 7] | cell proliferation suppressive activity against EoL-1 [5]
1 | B1 | exhibited cell proliferation suppressive activity at a lower concentration than that of human IgG1LALA-ADC | increase | increase | decreased in a dose-dependent manner | only against the CD25-positive human tumor cell line Karpas-299 |  |  |  |  | 
2 | B2 |  |  |  |  |  | exhibited cell proliferation suppressive activity |  |  |  | 
3 | B3 |  |  |  |  | exhibited no cell proliferation suppressive activity |  | increase | increase | decreased | exhibited cell proliferation suppressive activity at a lower concentration
